Data from patent US12123010B2, “Plants having increased tolerance to herbicides” (BASF SE, priority 2017, dated 2024).

Experiments:
Type in all cases: in vivo
[1] = system: Transgenic T4 Soybean plants harbouring PPO inhibitor tolerance trait; assay: T4 Soybean post spray, injury score 7 DAT
Experimental: (§1) Soybean cv Jake is transformed as previously described by Siminszky et al., Phytochem Rev. 5:445-458 (2006). After regeneration, transformants are transplanted to soil in small pots, placed in growth chambers (16 hr day/8 hr night; 25° C. day/23° C. night; 65% relative humidity; 130-150 microE m-2 s-1) and subsequently tested for the presence of the T-DNA via Taqman analysis. After a few weeks, healthy, transgenic positive, single copy events are transplanted to larger pots and allowed to grow in the growth chamber. An optimal shoot for cutting is about 3-4 inches tall, with at least two nodes present. Each cutting is taken from the original transformant (mother plant) and dipped into rooting hormone powder (indole-3-butyric acid, IBA). The cutting is then placed in oasis wedges inside a bio-dome. The mother plant is taken to maturity in the greenhouse and harvested for seed. Wild type cuttings are also taken simultaneously to serve as negative controls. The cuttings are kept in the bio-dome for 5-7 days and then transplanted to 3 inch pots and then acclimated in the growth chamber for two more days. Subsequently, the cuttings are transferred to the greenhouse, acclimated for approximately 4 days prior to spray. T0 or 2-week old T1 plants are sprayed with a treatment of the uracilpyridines as disclosed SUPRA and photosynthesis inhibitor diuron as negative control. Herbicide injury evaluations are taken at 2, 7, 14 and 21 days after treatment.
(§2) Transgenic T4 Soybean plants harbouring PPO inhibitor tolerance trait, were sprayed post with the indicated amount of uracilpyridine+1% (v/v) MSO. Evaluation performed 7 Days After Treatment (DAT) and shown as injury (0-9) relative to non-transgenic treated plants. Injury Scale: 0-9, 0=no imjury, 9=maximum injury.

[2] = system: Transgenic T2 Corn plants harbouring PPO inhibitor tolerance trait and J553 non transgenic; assay: Corn Trial, post spray, injury score 14 DAT
Experimental: Immature embryos are transformed according to the procedure outlined in Peng et al. (WO2006/136596). Plants are tested for the presence of the T-DNA by Taqman analysis with the target being the nos terminator which is present in all constructs. Healthy looking plants are sent to the greenhouse for hardening and subsequent spray testing. The plants are individually transplanted into MetroMix 360 soil in 4″ pots. Once in the greenhouse (day/night cycle of 27° C./21° C. with 14 hour day length supported by 600 W high pressure sodium lights), they are allowed to grow for 14 days. TO or T1 plants are sprayed with a treatment of the uracilpyridines as disclosed SUPRA and photosynthesis inhibitor diuron as negative control. Herbicide injury evaluations are taken at 7, 14 and 21 days after treatment. Herbicide injury evaluations are taken 2, 7, 14 and 21 days post-spray to look for injury to new growth points and overall plant health. The top survivors are transplanted into gallon pots filled with MetroMix 360 for seed production.
Transgenic T2 Corn plants harbouring PPO inhibitor tolerance trait, were sprayed post with the indicated amount of uracilpyridine+1% (v/v) MSO. Evaluation performed 14 Days After Treatment (DAT) and shown as injury (0-9) relative to non-transgenic treated plants.
Injury Scale: 0-9, 0=no injury, 9=maximum injury. Note: segregating lines.

[3] = system: Transgenic T2 or T3 Soybean plants harbouring PPO inhibitor tolerance trait; assay: Soybean Trial, post spray, injury score 14 DAT
Experimental: as §1
as §2, with “T2 or T3” for “T4”, “14” for “7”, “injury. Note: segregating lines.” for “injury.”

[4] = Jake non-transgenic, 25 g/ha + 1% (v/v) MSO
[5] = Jake non-transgenic, 50 g/ha + 1% (v/v) MSO
[6] = Jake non-transgenic, 100 g/ha + 1% (v/v) MSO
[7] = L397Q + F420M Event 5, 25 g/ha + 1% (v/v) MSO
[8] = L397Q + F420M Event 5, 50 g/ha + 1% (v/v) MSO
[9] = L397Q + F420M Event 5, 100 g/ha + 1% (v/v) MSO
[10] = R128A + F420I Event 2, 50 g/ha + 1% (v/v) MSO
[11] = R128A + F420I Event 2, 100 g/ha + 1% (v/v) MSO
[12] = R128A + F420L Event 1, 100 g/ha + 1% (v/v) MSO
[13] = corn J553 non transgenic, 25 g/ha + 1% MSO
[14] = corn J553 non transgenic, 50 g/ha + 1% MSO
[15] = corn J553 non transgenic, 100 g/ha + 1% MSO
[16] = Jake non transgenic, 25 g/ha + 1% (v/v) MSO
[17] = Jake non transgenic, 50 g/ha + 1% (v/v) MSO
[18] = Jake non transgenic, 100 g/ha + 1% (v/v) MSO
[19] = L397E + F420V Event 3, 50 g/ha + 1% (v/v) MSO
[20] = R128A + F420L Event 1, 50 g/ha + 1% (v/v) MSO

Structure (SMILES)	injury (0-9) [1, 4]	injury (0-9) [1, 5]	injury (0-9) [1, 6]	injury (0-9) [1, 7]	injury (0-9) [1, 8]	injury (0-9) [1, 9]	injury (0-9) [1, 10]	injury (0-9) [1, 11]	injury (0-9) [1, 12]	injury (0-9) [2, 13]	injury (0-9) [2, 14]	injury (0-9) [2, 15]	injury (0-9) [3, 16]	injury (0-9) [3, 17]	injury (0-9) [3, 18]	injury (0-9) [1, 19]	injury (0-9) [1, 20]	also measured
Cn1c(C(F)(F)F)cc(=O)n(-c2nc(Oc3ccccc3OCC(=O)NS(C)(=O)=O)c(Cl)cc2F)c1=O [Uracilpyridine 10, 2-[2-[[3-chloro-5-fluoro-6-[3-methyl-2,6-dioxo-4-(trifluoromethyl)pyrimidin-1-yl]-2-pyridyl]oxy]phenoxy]-N-methylsulfonyl-acetamide]	9 (Plant is dead.)	9 (Plant is dead.)	9 (Plant is dead.)	3 and 5	4	4 and 5	1 (Minimal injury, only a few patches of leaf injury or chlorosis.) and 2	2 and 3	2 and 1 (Minimal injury, only a few patches of leaf injury or chlorosis.)	–	–	–	–	–	–	–	–	–
CCOC(=O)COc1ncccc1Oc1nc(-n2c(=O)cc(C(F)(F)F)n(C)c2=O)c(F)cc1Cl [Uracilpyridine 2, ethyl 2-[[3-[[3-chloro-5-fluoro-6-[3-methyl-2,6-dioxo-4-(trifluoromethyl)pyrimidin-1-yl]-2-pyridyl]oxy]-2-pyridyl]oxy]acetate]	–	–	–	–	–	–	–	–	–	9 (Plant is dead.)	9 (Plant is dead.)	9 (Plant is dead.)	9 (Plant is dead.)	9 (Plant is dead.)	9 (Plant is dead.)	–	–	injury (0-9) ([2]; corn R128A, F420L Event 2, 50 g/ha + 1% MSO): 1 (Minimal injury, only a few patches of leaf injury or chlorosis.); injury (0-9) ([2]; corn R128A, F420L Event 2, 100 g/ha + 1% MSO): 1 (Minimal injury, only a few patches of leaf injury or chlorosis.); injury (0-9) ([3]; L397Q, F420M Event 3, 25 g/ha + 1% (v/v) MSO): 9 (Plant is dead.); injury (0-9) ([3]; L397Q, F420M Event 3, 100 g/ha + 1% (v/v) MSO): 1 (Minimal injury, only a few patches of leaf injury or chlorosis.)
CCOC(=O)COc1ccccc1Oc1nc(-n2c(=O)cc(C(F)(F)F)n(C)c2=O)c(F)cc1Cl [Uracilpyridine 4, ethyl 2-[2-[[3-chloro-5-fluoro-6-[3-methyl-2,6-dioxo-4-(trifluoromethyl)pyrimidin-1-yl]-2-pyridyl]oxy]phenoxy]acetate]	–	–	–	–	–	–	–	–	–	9 (Plant is dead.)	9 (Plant is dead.)	9 (Plant is dead.)	9 (Plant is dead.)	9 (Plant is dead.)	9 (Plant is dead.)	–	–	injury (0-9) ([2]; corn R128A, F420I Event 1, 25 g/ha + 1% MSO, individual plants, segregating lines): 0 (No Injury); injury (0-9) ([2]; corn R128A, F420L Event 2, 25 g/ha + 1% MSO): 0 (No Injury); injury (0-9) ([3]; L397E, F420M Event 2, 100 g/ha + 1% (v/v) MSO): 1 (Minimal injury, only a few patches of leaf injury or chlorosis.); injury (0-9) ([3]; L397Q, F420M Event 3, 50 g/ha + 1% (v/v) MSO): 9 (Plant is dead.)
CCOC(=O)COc1ccccc1Oc1nc(-n2c(=O)cc(C(F)(F)F)n(C)c2=O)c(F)cc1Br [Uracilpyridine 22, ethyl 2-[2-[[3-bromo-5-fluoro-6-[3-methyl-2,6-dioxo-4-(trifluoromethyl)pyrimidin-1-yl]-2-pyridyl]oxy]phenoxy]acetate]	9 (Plant is dead.)	9 (Plant is dead.)	9 (Plant is dead.)	1 (Minimal injury, only a few patches of leaf injury or chlorosis.) and 2	3 and 2 and 1 (Minimal injury, only a few patches of leaf injury or chlorosis.)	4	–	2 and 3 and 1 (Minimal injury, only a few patches of leaf injury or chlorosis.)	1 (Minimal injury, only a few patches of leaf injury or chlorosis.) and 2	–	–	–	–	–	–	0 (No Injury)	1 (Minimal injury, only a few patches of leaf injury or chlorosis.) and 2	–
COC(=O)COc1ccccc1Oc1nc(-n2c(=O)cc(C(F)(F)F)n(C)c2=O)c(F)cc1Cl [Uracilpyridine 21, methyl 2-[2-[[3-chloro-5-fluoro-6-[3-methyl-2,6-dioxo-4-(trifluoromethyl)pyrimidin-1-yl]-2-pyridyl]oxy]phenoxy]acetate]	9 (Plant is dead.)	9 (Plant is dead.)	9 (Plant is dead.)	3 and 2	3	3	2 and 1 (Minimal injury, only a few patches of leaf injury or chlorosis.)	3 and 2	–	–	–	–	–	–	–	0 (No Injury)	1 (Minimal injury, only a few patches of leaf injury or chlorosis.) and 2	injury (0-9) ([1]; L397E + F420V Event 3, 25 g/ha + 1% (v/v) MSO): 0 (No Injury)
Cn1c(C(F)(F)F)cc(=O)n(-c2nc(Oc3cccnc3OCC(=O)NS(C)(=O)=O)c(Cl)cc2F)c1=O [Uracilpyridine 20, 2-[[3-[[3-chloro-5-fluoro-6-[3-methyl-2,6-dioxo-4-(trifluoromethyl)pyrimidin-1-yl]-2-pyridyl]oxy]-2-pyridyl]oxy]-N-methylsulfonyl-acetamide]	9 (Plant is dead.)	9 (Plant is dead.)	9 (Plant is dead.)	4 and 3	3 and 4	4 and 7	3 and 2	4	3 and 4 and 5	–	–	–	–	–	–	–	3 and 2 and 1 (Minimal injury, only a few patches of leaf injury or chlorosis.)	injury (0-9) ([1]; R128A + F420I Event 2, 25 g/ha + 1% (v/v) MSO): 2 and 1 (Minimal injury, only a few patches of leaf injury or chlorosis.)

Several values for one entry are separate records, joined by “and”; a condition that tells them apart may be missing. Equal entries are not always repeated.
